Several values for one entry are separate records, joined by “and”; a condition that tells them apart may be missing. Identical values can stand only once.
Key:
[1] = target: T1, human serum albumin (HSA) (Homo sapiens, UniProt P02768); assay: DSC thermograms of HSA with ligand (single-ligand titration); assay type: binding; settings: for Tm / ΔG37^O / ΔHcal / ΔScal: thermal denaturation of HSA
T1 construct: purchased Sigma Aldrich (St. Louis, Mo.)
Protocol: Chemicals and reagents: Plasma and highly pure plasma proteins are sourced from commercial suppliers. Standard reagents are sourced from commercial suppliers. Samples are prepared in standard phosphate-buffered saline (PBS) buffer. In some examples, human plasma and serum albumin were purchased from Sigma Aldrich (St. Louis, Mo.) and received as lyophilized powder. Plasma was product number: P9523, lot number: SLBT0202. […] In vivo, the standard state of HSA is most certainly bound to some extent by fatty acids. Plasma and HSA stock solutions were prepared by re-suspending the appropriate amount of powder in buffer. Samples were prepared by diluting stock solutions to a final concentration of 1.5-2.0 mg/mL.
Protein concentration was approximately 2 mg/ml.
In a DSC melting experiment, the supplemental power supplied to the sample cell (in μW) necessary to keep the sample temperature equal to the reference temperature is continually monitored. […] Supplemental power is directly related to the molar heat capacity at constant pressure, ΔCp. Curves of ΔCp versus T provide an evaluation of the thermodynamic enthalpy. To enable direct comparisons in some cases, power (μW) versus T plots (instead of ΔCp versus T curves) were used for the following reason.
Analysis of DSC data was performed using the Nanoanalyze software package, version 3.7.5, provided by T.A. Instruments. […]
From the thermograms, semi-quantitative evaluations of the thermodynamic parameters ΔHcal, ΔScal and ΔGcal(37° C.) were obtained at each ligand concentration.
These curves were constructed from titrations of DM1 with HSA. The Tm and ΔGcal(37° C.) were evaluated. The values were normalized against standard HSA and plotted versus ligand concentration to provide the dose curves in FIG. 20A (Tm) and FIG. 20B (ΔGcal(37° C.)).
Natural HSA samples were prepared at pH 6.0 and pH 8.0 and examined by DSC. […] From DSC melting curves thermodynamic parameters for HSA/ligand mixtures were evaluated.

human plasma = assay: DSC thermograms of plasma with ligand; assay type: binding; settings: 100 μM ligand (FIG. 10A)
biotinylated HSA (HSAB) = biotinylated HSA (HSAB) (Homo sapiens, UniProt P02768); assay: DSC thermograms of biotinylated HSA (HSAB) with ligands; assay type: binding
[2] = target: T1, human serum albumin (HSA); assay: Two-ligand (NAP + BCG) binding to standard HSA by DSC

Chain of biotinylated HSA (HSAB) (P02768 25-609): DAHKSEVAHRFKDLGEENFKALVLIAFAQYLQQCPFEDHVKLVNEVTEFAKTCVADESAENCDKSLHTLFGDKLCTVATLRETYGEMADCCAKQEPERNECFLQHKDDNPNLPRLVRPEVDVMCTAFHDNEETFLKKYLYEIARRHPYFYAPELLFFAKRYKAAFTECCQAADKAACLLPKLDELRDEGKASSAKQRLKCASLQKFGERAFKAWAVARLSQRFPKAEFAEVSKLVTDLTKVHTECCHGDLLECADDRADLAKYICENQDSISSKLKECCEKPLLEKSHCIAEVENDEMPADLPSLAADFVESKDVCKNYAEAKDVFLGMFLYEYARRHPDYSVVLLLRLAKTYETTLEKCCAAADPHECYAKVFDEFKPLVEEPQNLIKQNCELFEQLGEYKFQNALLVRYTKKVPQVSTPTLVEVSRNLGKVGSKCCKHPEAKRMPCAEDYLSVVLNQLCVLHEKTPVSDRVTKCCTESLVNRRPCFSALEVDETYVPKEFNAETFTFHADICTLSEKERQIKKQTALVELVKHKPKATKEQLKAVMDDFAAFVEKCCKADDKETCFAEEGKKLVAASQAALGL
T1 sequence (P02768 25-609): as above

ΔHcal of HSA/ligand ([1]; HSA, 100 μM ligand (text, FIG. 10B)): 181.7 kcal/mol and 181 kcal/mol
Implied number of sites ([1]; from dose response curves with HSA): 6
Tm ([1]; ligand 1 μM): 63.2 °C
ΔG37^O ([1]; ligand 1 μM): 14.36 kcal/mol
ΔHcal ([1]; ligand 1 μM): 184.38 kcal/mol
ΔScal ([1]; ligand 1 μM): 548.18 cal/molK
Tm ([1]; ligand 10 μM): 63.5 °C
ΔG37^O ([1]; ligand 10 μM): 16.40 kcal/mol
ΔHcal ([1]; ligand 10 μM): 208.65 kcal/mol
ΔScal ([1]; ligand 10 μM): 619.86 cal/molK
Tm ([1]; ligand 25 μM): 64.2 °C
ΔG37^O ([1]; ligand 25 μM): 17.02 kcal/mol
ΔHcal ([1]; ligand 25 μM): 211.07 kcal/mol
ΔScal ([1]; ligand 25 μM): 625.67 cal/molK
Tm ([1]; ligand 50 μM): 66.1 °C
ΔG37^O ([1]; ligand 50 μM): 17.86 kcal/mol
ΔHcal ([1]; ligand 50 μM): 208.56 kcal/mol
ΔScal ([1]; ligand 50 μM): 614.86 cal/molK
Tm ([1]; ligand 75 μM): 66.8 °C
ΔG37^O ([1]; ligand 75 μM): 17.90 kcal/mol
ΔHcal ([1]; ligand 75 μM): 204.50 kcal/mol
ΔScal ([1]; ligand 75 μM): 601.63 cal/molK
Tm ([1]; ligand 100 μM): 68.2 °C
ΔG37^O ([1]; ligand 100 μM): 17.60 kcal/mol
ΔHcal ([1]; ligand 100 μM): 192.45 kcal/mol
ΔScal ([1]; ligand 100 μM): 563.76 cal/molK
Tm ([1]; ligand 150 μM): 68.7 °C
ΔG37^O ([1]; ligand 150 μM): 17.96 kcal/mol
ΔHcal ([1]; ligand 150 μM): 193.64 kcal/mol
ΔScal ([1]; ligand 150 μM): 566.45 cal/molK
Tm ([1]; ligand 175 μM): 68.8 °C
ΔG37^O ([1]; ligand 175 μM): 17.90 kcal/mol
ΔHcal ([1]; ligand 175 μM): 192.52 kcal/mol
ΔScal ([1]; ligand 175 μM): 563.00 cal/molK
Tm ([1]; ligand 200 μM): 68.9 °C
ΔG37^O ([1]; ligand 200 μM): 17.92 kcal/mol
ΔHcal ([1]; ligand 200 μM): 192.04 kcal/mol
ΔScal ([1]; ligand 200 μM): 561.41 cal/molK
Binding Chemical Potentials (ΔG^O37) (biotinylated HSA (HSAB); HSAB 1:1 with 50 μM BCG, [NAP] 25 μM): 21.35 kcal/mol
Binding Chemical Potentials (ΔG^O37) (biotinylated HSA (HSAB); HSAB 1:1 with 50 μM BCG, [NAP] 75 μM): 21.92 kcal/mol
Binding Chemical Potentials (ΔG^O37) (biotinylated HSA (HSAB); HSAB 1:1 with 50 μM BCG, [NAP] 150 μM): 23.32 kcal/mol
Binding Chemical Potentials (ΔG^O37) (biotinylated HSA (HSAB); HSAB 1:1 with 50 μM NAP, [BCG] 0 μM): 20.84 kcal/mol
Binding Chemical Potentials (ΔG^O37) (biotinylated HSA (HSAB); HSAB 1:5 with 50 μM BCG, [NAP] 25 μM): 23.10 kcal/mol
Binding Chemical Potentials (ΔG^O37) (biotinylated HSA (HSAB); HSAB 1:5 with 50 μM BCG, [NAP] 75 μM): 25.45 kcal/mol
Binding Chemical Potentials (ΔG^O37) (biotinylated HSA (HSAB); HSAB 1:5 with 50 μM BCG, [NAP] 150 μM): 26.36 kcal/mol
Binding Chemical Potentials (ΔG^O37) (biotinylated HSA (HSAB); HSAB 1:5 with 50 μM NAP, [BCG] 0 μM): 23.97 kcal/mol
Binding Chemical Potentials (ΔG^O37) (biotinylated HSA (HSAB); HSAB 1:10 with 50 μM BCG, [NAP] 25 μM): 23.00 kcal/mol
Binding Chemical Potentials (ΔG^O37) (biotinylated HSA (HSAB); HSAB 1:10 with 50 μM BCG, [NAP] 75 μM): 24.03 kcal/mol
Binding Chemical Potentials (ΔG^O37) (biotinylated HSA (HSAB); HSAB 1:10 with 50 μM BCG, [NAP] 150 μM): 25.93 kcal/mol
Binding Chemical Potentials (ΔG^O37) (biotinylated HSA (HSAB); HSAB 1:10 with 50 μM NAP, [BCG] 0 μM): 23.15 kcal/mol
Binding Chemical Potentials (ΔG^O37) ([2]; HSA25BCG (pre-bound 25 μM BCG), [NAP] 25 μM): 15.65 kcal/mol
Binding Chemical Potentials (ΔG^O37) ([2]; HSA25BCG (pre-bound 25 μM BCG), [NAP] 75 μM): 17.81 kcal/mol
Binding Chemical Potentials (ΔG^O37) ([2]; HSA25BCG (pre-bound 25 μM BCG), [NAP] 150 μM): 18.78 kcal/mol
Binding Chemical Potentials (ΔG^O37) ([2]; HSA25NAP (HSA + 25 μM NAP), [BCG] 0 μM): 16.45 kcal/mol
Binding Chemical Potentials (ΔG^O37) ([2]; HSA50BCG (pre-bound 50 μM BCG), [NAP] 25 μM): 17.12 kcal/mol
Binding Chemical Potentials (ΔG^O37) ([2]; HSA50BCG (pre-bound 50 μM BCG), [NAP] 75 μM): 17.62 kcal/mol
Binding Chemical Potentials (ΔG^O37) ([2]; HSA50BCG (pre-bound 50 μM BCG), [NAP] 150 μM): 18.96 kcal/mol
Binding Chemical Potentials (ΔG^O37) ([2]; HSA50NAP (HSA + 50 μM NAP), [BCG] 0 μM): 16.92 kcal/mol
Binding Chemical Potentials (ΔG^O37) ([2]; HSA75BCG (pre-bound 75 μM BCG), [NAP] 25 μM): 16.50 kcal/mol
Binding Chemical Potentials (ΔG^O37) ([2]; HSA75BCG (pre-bound 75 μM BCG), [NAP] 75 μM): 18.23 kcal/mol
Binding Chemical Potentials (ΔG^O37) ([2]; HSA75BCG (pre-bound 75 μM BCG), [NAP] 150 μM): 19.38 kcal/mol
Binding Chemical Potentials (ΔG^O37) ([2]; HSA75NAP (HSA + 75 μM NAP), [BCG] 0 μM): 17.38 kcal/mol
Binding Chemical Potentials (ΔG^O37) ([2]; WT HSA with 50 μM BCG, [NAP] 25 μM): 17.12 kcal/mol
Binding Chemical Potentials (ΔG^O37) ([2]; WT HSA with 50 μM BCG, [NAP] 75 μM): 17.62 kcal/mol
Binding Chemical Potentials (ΔG^O37) ([2]; WT HSA with 50 μM BCG, [NAP] 150 μM): 18.96 kcal/mol
Binding Chemical Potentials (ΔG^O37) ([2]; WT HSA with 50 μM NAP, [BCG] 0 μM): 16.92 kcal/mol
Compound: COc1ccc2cc([C@H](C)C(=O)O)ccc2c1 [NAP, naproxen]
enthalpy (ΔHcal) of plasma with ligand (human plasma): 149 kcal/mol

From patent publication US20220091128A1, “SYSTEM AND METHOD FOR LIGAND THERMAL ANALYSIS” (Portland State University, priority 2019, published 2022)
